Screen size: about 350,000 compounds; about 7,000 (2%) were called active. Inconclusive results, whose numbers are uncertain, are shown with a selection of clear calls. No stated cut-off is given here; in the data, active means activation above about 40%; inconclusive means no clear call, values can overlap the other calls; inactive means below that.
Experiment: raisers of Bmi1 knock-in reporter signal – mouse ES cells, Bmi1 luciferase knock-in, single point, esBAF inhibitor project, primary screen (AID 602393);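 further: 0% = median of the plate's neutral control wells and 100% = double that signal; a rise in the Bmi1 reporter signal indicates esBAF inhibition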
Details: 24 h, at 12.5 µM, active compounds read high, 100% = twice the neutral-well signal

| SMILES | reporter increase |
| --- | --- |
| COc1ccccc1-c1cnc2c(c1)C(=O)N([C@H](C)CO)C[C@H](C)[C@H](CN(C)Cc1cccnc1)O2 | inactive: -8.49% |
| Fc1ccccc1CSc1ncnc2c1ncn2C1CCCCO1 (stereo not given) | inactive: 38.5% |
| COc1ccc(OCCSc2ncccn2)cc1 | inconclusive: 42.4% |
| CCOc1ccc(NC(=O)c2cc3ccccc3cc2OC)cc1 | inconclusive: 40.3% |
| CN(C)/C=C1\SC(=S)N(c2ccc(Br)cc2)C1=O | inconclusive: 41.1% |
| CCOC(=O)c1c(C)[nH]c(C(=O)CSc2ccc(Cl)cc2)c1C | inconclusive: 42.9% |
| CN(CC(=O)Nc1ccc(Cl)c(C(F)(F)F)c1)C(=O)CCCNC(=O)c1ccc(Cl)cc1 | inconclusive: 41.9% |
| Cc1ccsc1/C=N/Nc1nc(Cl)c(Cl)cc1Cl | inconclusive: 42.2% |
| COc1ccc(CCNc2ccncn2)cc1 | inactive: -14.2% |
| C#CCn1c(=NC(=O)c2cccs2)sc2cccc(OC)c21 | active: 54% |
| O=C(Nc1ncccc1Cl)c1cc2ccccc2o1 | inconclusive: 40.9% |
| Cc1ccc(C)c(NC(=O)CSc2nccn2Cc2ccco2)c1 | active: 55.7% |
| O=C(NCCC(=O)N1CCN(c2ccccc2F)CC1)c1ccco1 | inactive: 31.8% |
| O=C(O)c1ccc(Nc2nc(-c3cccnc3)cs2)cc1 | inconclusive: 45.8% |
| Brc1ccc(-c2csc(N/N=C/c3ccco3)n2)cc1 | inconclusive: 58.8% |
| Cc1cc(C)c2nc(NC(=O)c3cc(C)on3)sc2c1 | inconclusive: 40.2% |
| C#CCSc1nnc(-c2ccc(C)cc2)o1 | inconclusive: 44% |
| CCN(CC)c1ccc(NC(=O)Nc2ccccc2C(F)(F)F)cc1 | inconclusive: 41.9% |
| O=c1[nH]c(COc2ccccc2)nc2ccccc12 | inconclusive: 37.3% |
| CCCc1cc(C(=O)NC2CCCCC2)no1 | active: 42.8% |
| CCS(=O)(=O)Nc1ccc2c(c1)C(=O)N(C)C[C@H](OC)[C@@H](C)CN(C(=O)NC(C)C)[C@H](C)CO2 | inactive: 0.174% |
| Clc1ccccc1/C=N/c1cc(-c2ccccc2)nn1-c1ccccc1 | inconclusive: 39.9% |
| O=C(Nc1cccc(Cl)c1)OCCOc1ccccc1 | active: 60.6% |

| SMILES | reporter increase |
| --- | --- |
| COC(=O)c1ccc(NC(=O)Nc2cccc(F)c2)cc1 | active: 70.3% |
| O=C(CCS(=O)(=O)c1ccccc1Cl)NC1CCCCCC1 | active: 49% |
| COc1cccc(S(=O)(=O)N[C@@H]2CC[C@H](CC(=O)NCc3ccncc3)O[C@@H]2CO)c1 | inactive: 3.93% |
| O=[N+]([O-])c1cc(-c2nc(-c3ccncc3)no2)cc([N+](=O)[O-])c1 | inconclusive: 40.7% |
| CC1CCN(c2ccc3c(c2)S(=O)(=O)c2cccc(C(=O)NCc4ccc(F)cc4)c2C3=O)CC1 | active: 70% |
| O=C(N/N=C/c1c[nH]c2ccccc12)c1sc2ccccc2c1Cl | active: 59.7% |
| COc1ccc(NC(=O)CCSc2nnnn2C)cc1 | inconclusive: 40.6% |
| Cc1ccc(OCc2cc(C(=O)N3CCN(c4ccccc4)CC3)no2)cc1C | inconclusive: 41.8% |
| COc1ccc(N=Cc2c(O)[nH]c3ccccc23)cc1OC | active: 73.5% |
| O=C(Cc1ccccc1F)Nc1nc(-c2ccc(F)cc2)cs1 | inconclusive: 42.3% |
| Cc1ccc(NCc2nnc(SCC(=O)Nc3ccccc3)n2CC2CCCO2)c(C)c1 (stereo not given) | inactive: 17.6% |
| Cc1c(C=O)c2cc(OCc3ccccc3)ccc2n1C | active: 70.5% |
| CN1C(=O)c2cc(NC(=O)c3cscn3)ccc2OC[C@@H]2O[C@H](CC(=O)NCC3CC3)CC[C@@H]21 | inactive: 1.51% |
| COc1ccc(-c2csc(C)n2)cc1 | inconclusive: 41.9% |
| COc1ccc(Cl)cc1NC(=O)Nc1ccccc1SC | inactive: -0.644% |
| COc1ccc(-c2ccc(-c3noc(C)n3)c(OC)n2)cc1 | inconclusive: 41.5% |
| Cn1c(COc2ccccc2Br)nc2ccccc21 | inconclusive: 36.4% |
| CC(C)(C)CC(=O)Nc1nnc(CCc2ccccc2)s1 | inconclusive: 41.7% |
| COCC#Cc1cnc2c(c1)C(=O)N([C@H](C)CO)C[C@@H](C)[C@H](CN(C)C(=O)Nc1ccccc1F)O2 | inactive: -3.72% |
| Nc1ccccc1SC(CC(=O)c1ccccc1)c1cccc([N+](=O)[O-])c1 (stereo not given) | inconclusive: 43.6% |
| COc1ccc(NC(=O)CSCc2ccccc2C)cc1 | active: 66.7% |
| CCOc1ccc(CCNC(=O)Cn2ncn3nc(-c4ccc(OC)cc4)cc3c2=O)cc1 | inconclusive: 44.6% |
| Cc1ccc(-c2noc(COC(=O)c3ccco3)n2)cc1 | inconclusive: 40.1% |

| SMILES | reporter increase |
| --- | --- |
| O=C1CN(c2ccccc2)C(=S)N1C(=O)c1ccc(Br)cc1 | inconclusive: 40.2% |
| COc1ccc(C#Cc2cnc3c(c2)C(=O)N([C@@H](C)CO)C[C@H](C)[C@H](CN(C)C(=O)Nc2cccc(OC)c2)O3)cc1 | inactive: -0.036% |
| COc1ccc(-c2cc(-c3ccccc3)n[nH]2)c(O)c1 | active: 83.4% |
| C[C@@H]1CN([C@H](C)CO)S(=O)(=O)c2ccc(-c3cccc(F)c3)cc2O[C@H]1CN(C)S(=O)(=O)c1ccccc1 | inactive: 1.64% |
| COc1ccc(/C(C)=N/NC(=O)c2ccncc2)cc1 | inactive: -0.111% |
| O=C(c1cccc(F)c1)N1CC[C@@H]2[C@@H](CO)Nc3ccc(C#Cc4ccc(F)cc4)cc3[C@@H]21 | inactive: 1.35% |
| O=C(COC(=O)c1cncc(Br)c1)Nc1nc(-c2ccc(F)cc2)cs1 | inconclusive: 34.9% |
| Cc1cc(CSc2ccccc2)ccc1NC(=O)COc1ccccc1 | inconclusive: 41.1% |
| CCOc1ccc(N/C=C/C(=O)c2ccc(OC)cc2)cc1 | inconclusive: 42% |
| CCNc1nc(N)nc(Oc2ccc(C(=O)OC)cc2)n1 | inconclusive: 43.9% |
| N#CCC(=O)N/N=C\c1ccccc1OC/C=C/c1ccccc1 | active: 63.8% |
| COc1ccc2nc(NC(=O)c3cccs3)sc2c1 | inconclusive: 53.6% |
| O=C(COc1ccc(F)cc1Cl)NC1CCCCCC1 | inconclusive: 42.2% |
| Cc1ccc(S(=O)(=O)N2C[C@@H](O)COC[C@H]3O[C@H](CC(=O)N[C@@H]4CCN(Cc5ccccc5)C4)CC[C@@H]32)cc1 | inactive: 6.82% |
| Cn1cc(Br)c(C(=O)Nc2sc3c(c2C(N)=O)CCCC3)n1 | active: 67.2% |
| C/C(=N\OC(=O)c1ccc(F)cc1)c1sc(-c2ccc(Cl)cc2)nc1C | inconclusive: 41.4% |
| COc1ccc2c(c1)CC/C(=C\C=C\c1ccccc1)C2=O | inconclusive: 41.4% |
| CC(C)(C)N1C(=O)c2ccc(C(=O)Nc3ccc(O)cc3)cc2C1=O | inconclusive: 44.6% |
| COc1ccc(-c2noc(Cc3ccccc3OC)n2)cc1 | inconclusive: 41.1% |
| N#CCSc1nc(-c2ccccc2)cs1 | inconclusive: 42.8% |
| COc1ccc(O)c(C(=O)c2cnn(-c3ccccn3)c2)c1 | inconclusive: 54.9% |
| CC(C)(CO)NC(=O)c1ccc2c(c1)C(=O)c1ccccc1-2 | inconclusive: 37.4% |
| Cc1noc(C)c1NC(=O)N(C)C[C@H]1Oc2ncc(C#CCN(C)C)cc2C(=O)N([C@H](C)CO)C[C@@H]1C | inactive: -3.07% |

| SMILES | reporter increase |
| --- | --- |
| COc1ccc2nc(C(c3ccc(C)cc3)n3c(-c4ccccc4Br)nc4ccccc43)[nH]c2c1 (stereo not given) | inconclusive: 54.3% |
| N#Cc1ccc(NC(=S)/N=C(\N)c2ccccc2)cc1 | inconclusive: 40.5% |
| Cc1c(C)n(CCc2ccccc2)c2ncnc(NCCCO)c12 | inconclusive: 54.2% |
| Cc1csc(NC(=S)NC(=O)c2ccccc2)n1 | inconclusive: 50% |
| COc1ccc(NC(=O)Nc2ccc3nsnc3c2)cc1 | active: 100% |
| CC(C)C(=O)Nc1cccc(NC(=S)NC(=O)c2cccs2)c1 | inconclusive: 44.5% |
| COc1ccc(/C=N/n2c(C)nc3ccccc3c2=O)cc1 | inconclusive: 46.3% |
| Cc1ccc(Cn2ccsc2=NC(=O)COC(=O)c2ccc(O)cc2O)cc1 | active: 47.2% |
| CCN(CC)C(=O)c1nc(-c2cccc3ccccc23)no1 | active: 70.1% |
| O=c1[nH]nc(SCc2nc3ccccc3s2)n1C1CC1 | inconclusive: 68.3% |
| O=C(OCC(=O)c1c[nH]c2ccccc12)c1ccc([N+](=O)[O-])s1 | inactive: -1.9% |
| C[C@H](CO)N1C[C@H](C)[C@@H](CN(C)C(=O)Nc2ccc3c(c2)OCO3)Oc2c(NS(=O)(=O)c3cn(C)cn3)cccc2C1=O | inconclusive: 43.6% |
| O=C(C[C@H]1CC[C@@H]2[C@H](COC[C@@H](O)CN2C(=O)c2cnccn2)O1)NCc1ccccc1 | inactive: -4.2% |
| COc1ccc2cc(C3(C)NC(=O)N(CC(=O)N4CCCCC4)C3=O)ccc2c1 (stereo not given) | inactive: -0.847% |
| CO[C@H]1CC[C@@H]2CCOc3ccc(C#N)cc3C(=O)N(C)C[C@@H](OC)[C@@H](C)C(=O)N(C)C[C@H]1O2 | inactive: 3.35% |
| Cc1c(-c2cc(Br)ccc2O)nc2cc3c(cc2c1C)OCO3 | inconclusive: 53.3% |
| Cc1[nH]nc(Nc2ccc(C(C)C)cc2)c1[N+](=O)[O-] | active: 93.1% |
| O=C(CCS(=O)(=O)c1ccc(Cl)cc1)Nc1nc(-c2cccnc2)cs1 | inactive: -3.38% |
| C=CCn1cccc(C(=O)Nc2ccc(C)c(Cl)c2)c1=O | inconclusive: 40.2% |
| O=C(C[C@H]1CC[C@@H](NC(=O)c2cccnc2)[C@@H](CO)O1)NCCN1CCCCC1 | inactive: -0.448% |
| C[C@H](CO)N1C[C@H](C)[C@@H](CN(C)C(=O)Nc2cccc3ccccc23)Oc2ccc(NS(C)(=O)=O)cc2C1=O | inactive: 3.73% |
